Measured values taken from PubChem BioAssay AID743279 (National Center for Advancing Translational Sciences (NCATS), 2014).
In all, about 360,000 compounds went through this assay and about 17,000 (4.7%) were called active. The shares of active, inactive and inconclusive entries below differ from those in the screen. Rule as the data show it: active = activity change below about -50%; inconclusive = mostly about -30% to -49%; inactive = weaker than that.

Experiment: qHTS for Inhibitors of Inflammasome Signaling: IL-1-beta AlphaLISA Primary Screen
Conditions: THP-1 LPS/ATP IL-1B secretion, 16 h; at 57.5 µM, hits give low values
Summary of the method: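 Secreted IL-1B measured by AlphaLISA bead assay after 16 h compound exposure of THP-1 cells; compounds (final up to 57.5 uM) added 1 h before LPS (250 ng/mL) and ATP (1.25 mM) stimulation; lower signal means less secretion.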
% is scaled to controls: 0 for no effect and ±100 for the full control effect.

| SMILES | activity change |
| --- | --- |
| O=[N+]([O-])c1ccc(N2CCN(S(=O)(=O)c3ccccc3)CC2)cc1NCc1cccnc1 | inconclusive: -31.1% |
| Cc1ccc([N+](=O)[O-])cc1NC(=O)c1ccoc1C | inconclusive: -31.4% |
| COc1c(OC2OC(C(=O)O)C(O)C(O)C2O)cc(O)c2c(=O)cc(-c3ccccc3)oc12 (configuration not stated) | inactive: 10.6% |
| Cc1cc(N(CN2CCCC2=O)C(=O)c2ccc(F)cc2)no1 | inconclusive: -30% |
| O=C(c1ccc(-n2cccc2)cc1)N1CCCCC1 | inconclusive: -44.1% |
| CCOC(=O)c1c(CN2CCN(C)CC2)oc2ccc(OC)cc12 | inconclusive: -35.2% |
| COc1cc(OC)c2c(c1)S(=O)(=O)C(c1ccccc1)=C2N | inconclusive: -38.4% |
| Nc1ccc2nc(-c3ccc(N)c(Cl)c3)[nH]c2c1 | inconclusive: -41.7% |
| COC(=O)Cn1c(C)nc([N+](=O)[O-])c1Br | inconclusive: -38% |
| CN1CCN(CCNC(=O)c2cc3c(=O)n(C)c4ccccc4c3n2C)CC1 | inconclusive: -40.8% |
| COC(=O)c1ccc(NC(=O)CCCN2C(=O)NC(C)(C)C2=O)cc1 | inactive: 2.49% |
| COc1cc2c(cc1OC)C(SC)=NC1(CCCC1)C2 | inconclusive: -40.8% |
| CN(C)Cc1cc(C(F)(F)F)ccc1C(O)(c1ccccc1)c1ccccc1 | active: -75% |
| CC1CCC2(CC1)NC(=O)N(CC(=O)Nc1cccnc1Cl)C2=O (configuration not stated) | inactive: -20.8% |
| S=C(NCCCc1ccccc1)Nc1ccc(Cl)cc1 | inconclusive: -39.8% |
| Fc1ccc(-c2nc3n(n2)Cc2ccccc2-3)cc1 | inactive: 35.8% |
| O=C(Nc1ccc(S(=O)(=O)N2CCCCC2)cc1)C1CC(=O)N(c2ccc(Cl)cc2)C1 (configuration not stated) | inconclusive: -42.3% |
| O=C(Cc1cccc(F)c1F)NC1CCCN(Cc2ccc(Cl)cc2)C1 (configuration not stated) | inconclusive: -43.7% |
| COc1ccc(-c2cc3nc(C)c(CCC(=O)NCc4ccc(F)cc4)c(C)n3n2)c(OC)c1 | inconclusive: -46.1% |

| SMILES | activity change |
| --- | --- |
| COc1ccc(Cn2nnc3c(=O)[nH]c(C4CCN(S(=O)(=O)c5ccc(C)cc5)CC4)nc32)cc1 | inconclusive: -32.5% |
| Cc1nn(Cc2ccccc2)c2sc(C(=O)N3CCN(Cc4ccc5c(c4)OCO5)CC3)cc12 | inconclusive: -31.1% |
| COc1ccccc1-c1nnc(Sc2nc([N+](=O)[O-])nn2C)o1 | active: -100% |
| Cc1nn2c(NC(C)C)c3c(nc2c1-c1ccccc1)CCC3 | inconclusive: -34.7% |
| CNC(=O)c1c(NC(=O)CCS(=O)(=O)c2ccc(C)cc2)sc2c1CCN(C(=O)OC)C2 | inconclusive: -34.8% |
| CC(O)[C@H]1CNCCN1CCc1cc(C(F)(F)F)cc(C(F)(F)F)c1 (some centres not stated) | inconclusive: -37.4% |
| CC(C)(C)c1cc(CCC(=O)Nc2ccncc2)cc(C(C)(C)C)c1O | inconclusive: -39.2% |
| COc1ccccc1Nc1nc(Cl)c(C=O)s1 | active: -53.3% |
| O=c1[nH]cnc2c1ncn2[C@@H]1O[C@H](COS(=O)(=O)O)[C@@H](O)[C@H]1O | inactive: -3.52% |
| COc1ccc(CNc2ccc(C)cc2)cc1Br | inconclusive: -35.3% |
| O=C(COC(=O)c1cccc(Br)c1)NCC1CCCO1 (configuration not stated) | inactive: -3.79% |
| COc1ccccc1N=c1oc2cc(O)ccc2cc1C(N)=O | inconclusive: -48.7% |
| Cc1ccccc1C(=O)O/N=C(\N)Cc1cccs1 | active: -60.9% |
| CC(C)C(Cl)=NOC(=O)Nc1ccc(S(N)(=O)=O)cc1 | active: -99.2% |
| CCN1CCSc2ccc(C(=O)NCc3cccc(Br)c3)cc21 | inconclusive: -33.4% |
| CCn1c(=O)cc(SCC(=O)Nc2ccc(OC)c(OC)c2)c2ccccc21 | inconclusive: -39.2% |
| COc1ccc(NC(=O)C2(C)Cc3c(-c4ccc(NC(C)=O)cc4)ccnc3O2)cn1 (configuration not stated) | inconclusive: -30.4% |
| CCN(CC)C(=O)c1oc2ccc(S(=O)(=O)N3CCCCCC3)cc2c1C | inactive: -9.94% |
| CCCNC(=O)CSc1nnc(-c2ccc(F)cc2)o1 | inconclusive: -32.6% |

| SMILES | activity change |
| --- | --- |
| Cc1ccc(C(=O)CSc2nnc(COc3cccc4cccnc34)o2)cc1 | inconclusive: -36.9% |
| O=C(N1CCN(c2cccc(Cl)c2)CC1)C1(c2cccs2)CCOCC1 | inconclusive: -39% |
| COc1ccc(NC2=NCCCCC2)cc1 | inactive: 1.95% |
| OCCN1CCN(c2ncnc3scc(-c4ccc(F)cc4)c23)CC1 | inconclusive: -44.1% |
| O=C(NCC1CCCO1)C(c1ccncc1)N(Cc1ccc(F)cc1)C(=O)CN1C(=O)c2ccccc2S1(=O)=O (configuration not stated) | inactive: 10.6% |
| O=C(COC(=O)c1ccc2c(c1)OCCO2)NCc1ccccc1Cl | inconclusive: -30.3% |
| Cc1ccc(-c2csc3ncnc(Sc4nnc(CN5CCCCCC5=O)o4)c23)cc1 | active: -97.7% |
| CCc1cccc(NC(=O)Nc2ccc3c(c2)OCO3)c1 | inconclusive: -48.3% |
| O=C(NC(=S)N1CCCCC1)C12CC3CC(CC(C3)C1)C2 | inactive: -17.6% |
| O=C(CC1C(=O)NCCN1C(=O)Nc1ccc(F)cc1)Nc1ccc(F)cc1 (configuration not stated) | inconclusive: -49.6% |
| COc1ccccc1NC(=O)Nc1nc(CC(=O)Nc2ccc(F)c(F)c2)cs1 | active: -69.2% |
| Nc1ccc2nc3c(=O)n(C4CCCCC4)c(=O)[nH]c3nc2c1 | inconclusive: -46.3% |
| COc1ccc(-c2c3c(nc4sc(C(=O)Nc5ccccc5)c(N)c24)CCC3)cc1 | inconclusive: -32.4% |
| COc1ccc2nc(C)cc(SCC(=O)NNC(=O)COc3ccc(C)cc3)c2c1 | inactive: 0.363% |
| CCc1ccc(CN2CCN(C(=O)c3ccco3)CC2)cc1 | inconclusive: -30% |
| Cn1cccc1C1NC(=O)c2c(sc3c2CCC(C(C)(C)C)C3)N1 (configuration not stated) | inconclusive: -34.4% |
| O=C(CSc1nc2ccsc2c(=O)n1Cc1ccc(C(=O)O)cc1)NCc1ccco1 | inactive: 5.52% |
| CC1CC(C)(C)N(C(=O)CSc2ccc(-c3ccc(F)cc3)nn2)c2ccccc21 (configuration not stated) | active: -89.9% |
| CSC1=NC(C)(C)CC2(C)Nc3ccccc3N12 (configuration not stated) | inconclusive: -38.6% |
